In all, about 33,000 sequences were measured (“E-score (-0.5 to 0.5)”: median about -0.016, highest 2% from about 0.32 on). Some of the results follow.
Target: T1, Stp1 (UniProt B3LFK1)
T1 sequence: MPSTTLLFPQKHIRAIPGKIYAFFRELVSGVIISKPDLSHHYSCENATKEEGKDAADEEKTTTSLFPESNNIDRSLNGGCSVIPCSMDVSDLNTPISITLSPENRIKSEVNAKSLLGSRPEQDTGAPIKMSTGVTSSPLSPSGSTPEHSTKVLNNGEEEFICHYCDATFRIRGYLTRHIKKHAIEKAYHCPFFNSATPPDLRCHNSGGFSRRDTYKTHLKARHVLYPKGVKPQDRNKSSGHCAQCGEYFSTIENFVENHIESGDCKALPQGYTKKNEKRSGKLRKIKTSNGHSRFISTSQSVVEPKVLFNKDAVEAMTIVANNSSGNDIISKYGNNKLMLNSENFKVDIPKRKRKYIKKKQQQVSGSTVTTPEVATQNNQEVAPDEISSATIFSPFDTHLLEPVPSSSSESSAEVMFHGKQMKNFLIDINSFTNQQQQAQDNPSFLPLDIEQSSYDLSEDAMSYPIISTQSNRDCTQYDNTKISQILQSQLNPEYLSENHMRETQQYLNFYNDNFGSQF
Test: PBM E-score (8-mer binding enrichment) (E-score (-0.5 to 0.5)); higher = stronger / more preferred TF binding; most listed sequences are background and not binding sites
Details: protein concentration: 200 nM; construct: GST-full length
In short: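 Each ungapped eight-base word and its reverse complement, pooled, received an E-score from the Universal PBM Analysis Suite. Underlying scans, normalised with masliner, recorded fluorescent anti-GST bound to GST-tagged yeast transcription factors. These were applied at about 100-200 nM to universal all-10-mer Agilent arrays double-stranded by primer extension.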

Sequence	PBM E-score
ACGAGCAA	-0.24
CCCCCTGA	-0.338
CAAAATGA	0.182
GTGGTATA	0.0163
ATTATGGC	0.0101
AACATAAT	0.214
AAGAAACT	-0.0398
CGATCCCA	-0.0852
ATCTGTTA	0.0856
AGGGGGCA	-0.252
ACAATTCC	-0.0617
ACAACGAA	0.0704
ACTCGCGA	0.168
GACGCGCC	0.348
AGCAGCAG	-0.0457
CGACCACA	-0.215
CGCCGAAG	0.13
ACCACTGG	-0.151
ACTGCAAT	0.0998
GCCCAGGC	-0.209
AGGGCTTG	-0.0291
CAAGCTAC	-0.171
CGGGATAG	-0.0247
GCCAGACC	-0.0926
CTACGGAG	-0.0394

Sequence	PBM E-score
CGTTGGGA	-0.0414
GACAGTAA	0.0631
TGAATAAA	0.225
ATGAAGGG	-0.177
ATGCGCCC	0.158
AGCTGGAG	-0.237
ATCGTTTA	0.213
CACGTTAG	0.0297
CTACGTCA	-0.204
CTGGCAGA	0.0447
ACGAGTCT	-0.301
CACCAATC	0.0442
CCGTGTCG	0.285
ACAGAGCC	0.0316
ATCACGGA	-0.0235
GTCAACTA	0.0182
ACAGCGGT	-0.0982
GGCGTTAA	0.283
TATCATCA	0.191
CCCCTATA	-0.241
AATACGCG	0.203
AATGTCGG	0.0531
ACTCGATA	0.152
CATCGAAA	0.141
CAGGCCAA	-0.233

Sequence	PBM E-score
AGAGCGCG	0.1
CCCTATTA	-0.0216
ACAGGGTG	-0.32
ATCTCAAC	0.0719
AATGACCC	-0.289
AGTTAACT	0.2
CATGTCAA	-0.0416
CCAAAGCG	0.0506
ATATTGGG	-0.2
GAATCAGC	-0.0687
CGCCGTAA	0.418
GCGTTTAC	-0.082
CTTTGCTA	-0.0117
TCCCCTCA	-0.106
GGAGAAGA	-0.154
AAGTCCCT	-0.363
GTGAGGCA	0.367
CTAAGGAA	0.066
CCCCCTCC	-0.379
ACACATGG	-0.0182
ACCATATG	-0.215
TAGCCCCA	-0.116
AGGTCCAG	-0.106
CAGAAGAC	-0.082
CGCGTGCC	0.325

Sequence	PBM E-score
AAACTCGA	-0.0615
CTGCTCGA	-0.171
CCTGAGTC	-0.227
GAGAACGC	-0.0745
ATGTGCCC	0.0678
GTAATGAA	0.109
AAACCATT	-0.0453
CATTACTC	0.0185
AGGAGCAG	-0.147
GCTTAAAC	0.00392
CCGCATAG	0.287
CTCGCCAA	0.0165
ATTTGGTG	0.0917
ATCACCGG	-0.0553
ATTCCGTA	0.106
ACCATGTA	0.0348
CTATGGTA	-0.0844
ACAATATC	0.0596
CGGTCGGA	-0.0604
ACAGTTAC	-0.0301
AACCACGC	0.144
AACCAAGC	-0.0107
ATGCTGTC	-0.129
ATGCGTGA	-0.0753
GATTGTCC	-0.0756

Sequence	PBM E-score
GCTCACGA	-0.0268
CCGCCGGA	0.0267
CGTAGACC	-0.193
TAAAGGAA	-0.0551
AGTGCGTC	-0.24
CGCGTACA	0.132
GACCATAA	0.0286
ACAGGTGG	-0.0148
CGCCCACA	0.112
ATAAGCCA	-0.0425
ATAGGGCG	0.282
AGCGTTCG	-0.0788
GATAATCC	-0.175
AGTATAGC	-0.0636
AGAGCTGC	-0.17
CTATTGAC	-0.106
CGTAAGAA	0.0238
AAGGTAGC	-0.167
CCTGCACG	-0.064
ATGCTACA	0.0251
GTGCGCAA	-0.0196
ACCTTTGG	-0.175
GAGTTAGC	0.0268
AGGGGACT	-0.197
ACTAACGA	0.0942

Sequence	PBM E-score
CGTCGTGA	-0.24
GCCCCGCC	0.207
CCTTCATA	-0.00266
AGTAAACA	0.111
CAAGAAGC	0.199
AGGCCTCA	-0.143
GTCGTCTA	-0.0445
GCAACTAA	0.263
CGTTTCGC	0.0321
TCCCTCGA	-0.196
CGAACGCG	0.103
GGAGGGAC	-0.227
CAGGACTG	-0.107
ATCGCCCC	-0.0316
CTTACTAC	-0.0212
CCACTCAG	-0.108
CTTACAGC	0.0767
CAACGGAG	-0.0687
CCCCGGAC	-0.161
CACCCGGA	-0.0499
CCGACGTA	-0.12
CCTCCTAC	-0.131
GTACTAAA	0.0769
GTCTCCAA	-0.0244
CGATAGAC	0.00428

Sequence	PBM E-score
ACTAGTGC	0.173
ACACTAAC	0.0905
CACACCCA	-0.101
ATTTTTGG	0.117
AGCAATCA	-0.0553
AGCCCGCC	-0.0384
GAACGCTC	-0.17
CTACGTTC	-0.141
CTCTGTAC	0.00392
ATCAGAAT	0.0562
ACGCACCC	-0.306
CTTCATGA	0.138
ATATGACC	-0.104
CAGCATGG	-0.0284
CAGCGAGC	-0.0649
ATAGGAAT	0.0422
AGGCAGGG	-0.123
AGGAGAGG	-0.249
GAAGCCCC	-0.232
GAAATACC	0.0295
GATCCCAA	-0.0973
CGACCTGA	-0.116

Reference: the supplement of paper PMC3334620
